Assay [1] deals with T1, IL13Rα2 on cells (recombinant K562-IL13Rα2 cell line, U251-MG cells, PC3 cells) (human, UniProt Q14627 27-380).
T1 construct: whole, on cells; not repeated for the recombinant cell line; also called Interleukin-13 receptor subunit alpha-2
T1 sequence (looked up): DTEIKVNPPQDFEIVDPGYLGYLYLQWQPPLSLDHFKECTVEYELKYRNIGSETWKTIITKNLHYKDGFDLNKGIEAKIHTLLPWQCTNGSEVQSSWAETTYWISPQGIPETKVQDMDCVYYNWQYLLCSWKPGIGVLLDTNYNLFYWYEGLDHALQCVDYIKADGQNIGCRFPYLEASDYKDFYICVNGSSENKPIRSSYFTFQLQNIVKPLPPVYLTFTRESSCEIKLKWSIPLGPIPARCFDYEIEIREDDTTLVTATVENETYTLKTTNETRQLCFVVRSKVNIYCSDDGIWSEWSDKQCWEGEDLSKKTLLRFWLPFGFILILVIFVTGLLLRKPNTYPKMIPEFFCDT
The experiment in a line: flow cytometry cellular binding assay on recombinant K562-IL13Rα2 cells, two-step immunostaining (anti-His-tag-PE), absolute MFI against TM concentration, four-parameter fit. The protocol: (§1) Cellular binding of IL13-based targeting modules (TM) was tested on recombinant K562-IL13Rα2 cell line (FIG. 2A), recombinant K562-IL13Rα1 cell line (FIG. 2B) and U251-MG cells (FIG. 2C) (derived from a malignant glioblastoma tumor by explant technique). The affinity of TMs was analyzed by FACS in a two-step immunostaining. The TMs were titrated on an AML cell line with recombinant overexpression of IL13Rα2 or IL13Rα1 or U251-MG cells, respectively, and then detected by a mouse anti-His-tag antibody conjugated to phycoerythrin. A dose-response curve was obtained when the geometric mean fluorescence (MFI) was plotted against the TM concentration.
(§2) The data for the cellular binding of IL13-based TMs on the IL13Rα2-expressing AML cell line and U251-MG cells were fitted using a four-parameter model with a variable slope for sigmoidal curves.
For orientation: A flow cytometer gives signals particle by particle.

In assay [2] the target is T2, IL13Rα1 on recombinant K562-IL13Rα1 cell line (UniProt P78552 22-427).
T2 sequence (looked up): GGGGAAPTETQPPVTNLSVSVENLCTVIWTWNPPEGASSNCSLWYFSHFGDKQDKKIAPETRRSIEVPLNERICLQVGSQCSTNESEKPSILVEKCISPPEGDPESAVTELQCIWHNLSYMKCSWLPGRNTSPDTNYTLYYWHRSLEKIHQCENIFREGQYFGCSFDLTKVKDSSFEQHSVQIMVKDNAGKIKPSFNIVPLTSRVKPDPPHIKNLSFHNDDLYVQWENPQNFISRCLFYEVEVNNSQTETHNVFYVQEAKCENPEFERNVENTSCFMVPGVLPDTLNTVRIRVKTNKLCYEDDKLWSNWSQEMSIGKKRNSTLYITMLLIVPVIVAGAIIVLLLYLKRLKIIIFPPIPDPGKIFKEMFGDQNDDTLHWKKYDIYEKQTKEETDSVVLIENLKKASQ
As to the kind of experiment: cell-based or functional assay.

The target of assay [3] is T1, IL13Rα2 on cells (recombinant …). The experiment in a line: flow cytometry cellular binding assay on U251-MG cells, two-step immunostaining (anti-His-tag-PE), absolute MFI against TM concentration, four-parameter fit. The procedure: as §1, §2
Assay [4] has as its target T3, soluble recombinant IL13Rα2 ectodomain (human, UniProt Q14627 27-343).
T3 construct: extracellular domain
T3 sequence (looked up): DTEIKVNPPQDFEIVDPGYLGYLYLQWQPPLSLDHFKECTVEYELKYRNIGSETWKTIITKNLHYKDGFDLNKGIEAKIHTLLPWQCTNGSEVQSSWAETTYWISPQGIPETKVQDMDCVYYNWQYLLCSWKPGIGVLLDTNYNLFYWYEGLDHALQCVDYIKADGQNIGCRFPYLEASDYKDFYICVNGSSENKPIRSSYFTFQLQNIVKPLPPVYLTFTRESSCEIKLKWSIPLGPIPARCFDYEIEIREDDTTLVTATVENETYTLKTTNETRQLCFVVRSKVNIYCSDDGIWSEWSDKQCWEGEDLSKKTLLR
The experiment in a line: SPR, Biacore X100, 1:1 binding model. The procedure: Data obtained by surface plasmon resonance were fitted with a “1:1 binding” model using the Biacore X100 Evaluation Software (V2.0.1). The following parameters were calculated from this model: association rate (kₐ), dissociation rate (kd) and the dissociation constant at equilibrium (KD).
On the technique in general: Surface plasmon resonance follows binding to a sensor surface in real time, without labels.

B1: targeting module comprising IL13wt (ligand, not shown: small tags and cut ends)
chain (part 1 of 2): not shown
chain (part 2 of 2): KPLPEVTDEYHHHHHHHH
notes: only that the His tag is at the C-terminus; also called TM based on IL13 wt
As for B1, the EC50 in assay [1] was found to be 1.93 nM. Also, the “EC50 of switchable CAR T cell-dependent lysis of K562-IL13Rα1” value in assay [2] turned out to be 0.516 nM. For the same molecule, the EC50 in assay [3] was 0.977 nM. In assay [4], the Kd stood at 14 nM, the koff was 0.00074 s⁻¹ and the kon is 54000 M⁻¹ s⁻¹.

As usually defined, the EC50 is the concentration giving half of the maximal effect. For orientation: Kd means the concentration at which binding is half-saturated. As a reminder, the koff is the rate constant with which the complex falls apart. The kon is a measure of how fast the partners come together.

The values above are taken from patent US20250302875A1 (AVENCELL EUROPE, published 2025).
